Assay results reported in paper PMC8179877.
Where two headings read alike, the source gives them in different places. No constants are given. Whether binding was seen depends on the method and setting. Some binding calls cover weakened binding; strength is not graded here.

Columns and labels:
[1] = target: OsGSAM, rice glutamate 1-semialdehyde 2,1-aminomutase, full length (rice (Oryza sativa)) (UniProt Q6YZE2); test: two-hybrid; Matchmaker GAL4 two-hybrid system 3 (Clontech), Y2HGold yeast; GAL4 AD fusion (full length or fragment) co-transformed with the GAL4 BD fusion of full-length OsGSAM; growth on -Ade/-His/-Leu/-Trp plates at dilutions 1, 0.1 and 0.01; 30 mM 3-AT for the combination with the self-activating fusion vector
[2] = target: OsGSAM, rice glutamate 1-semialdehyde 2,1-aminomutase, full length (rice (Oryza sativa)) (UniProt Q6YZE2); test: as above; remark: listed apart in the source

## OsGSAM fragment R1 (1st-240th amino acid residues) (from UniProt Q6YZE2 1-240) (domain or fragment)
[1]
  binding: binds

## OsGSAM fragment R2 (241th-478th amino acid residues) (from UniProt Q6YZE2 241-478) (domain or fragment)
[1]
  binding: binds

## OsGSAM fragment R3 (81th-400th amino acid residues) (from UniProt Q6YZE2 81-400) (domain or fragment)
[1]
  binding: binds

## OsGSAM fragment R6 (321th-478th amino acid residues) (from UniProt Q6YZE2 321-478) (domain or fragment)
[1]
  binding: binds

## OsGSAM fragment R9 (321th-400th amino acid residues) (from UniProt Q6YZE2 321-400) (domain or fragment)
[1]
  binding: binds

## OsGSAM, rice glutamate 1-semialdehyde 2,1-aminomutase, full length (from UniProt Q6YZE2 1-478) (enzyme)
[1]
  binding: binds

B1: OsGSAM fragment R5 (1st-160th amino acid residues) (domain or fragment, UniProt Q6YZE2 1-160)
chain: MAGAAAASAAAAAVASGISARPVAPRPSPSRARAPRSVVRAAISVEKGEKAYTVEKSEEIFNAAKELMPGGVNSPVRAFKSVGGQPIVFDSVKGSRMWDVDGNEYIDYVGSWGPAIIGHADDTVNAALIETLKKGTSFGAPCVLENVLAEMVISAVPSIE
[2]
  binding: binds

B2: OsGSAM fragment R8 (81th-160th amino acid residues) (domain or fragment, UniProt Q6YZE2 81-160)
chain: SVGGQPIVFDSVKGSRMWDVDGNEYIDYVGSWGPAIIGHADDTVNAALIETLKKGTSFGAPCVLENVLAEMVISAVPSIE
[2]
  binding: binds

B3: OsGSAM fragment R4 (161th-320th amino acid residues) (domain or fragment, UniProt Q6YZE2 161-320)
chain: MVRFVNSGTEACMGALRLVRAFTGREKILKFEGCYHGHADSFLVKAGSGVATLGLPDSPGVPKGATSETLTAPYNDVEAVKKLFEENKGQIAAVFLEPVVGNAGFIPPQPGFLNALRDLTKQDGALLVFDEVMTGFRLAYGGAQEYFGITPDVSTLGKII
[2]
  binding: no binding

B4: OsGSAM fragment R7 (1st-80th amino acid residues) (domain or fragment, UniProt Q6YZE2 1-80)
chain: MAGAAAASAAAAAVASGISARPVAPRPSPSRARAPRSVVRAAISVEKGEKAYTVEKSEEIFNAAKELMPGGVNSPVRAFK
[2]
  binding: no binding

B5: OsGSAM fragment R10 (401th-478th amino acid residues) (domain or fragment, UniProt Q6YZE2 401-478)
chain: GGHIRGMFGFFFTAGPVHNFGDAKKSDTAKFGRFYRGMLEEGVYLAPSQFEAGFTSLAHTSQDIEKTVEAAAKVLRRI
[2]
  binding: no binding
